Test results taken from PubChem BioAssay AID1347434 (National Center for Advancing Translational Sciences (NCATS), 2020).
Screen size: about 1,200 compounds; about 30 (2%) were called active. Another 23% or so got no clear call; they are omitted. The call rests on the fitted dose curve; in most records, active means well fitted inhibition curve with a large enough effect; inconclusive means small, poorly fitted or top-dose-only effect; inactive means flat fitted curve, though single readings scatter. The list shows a part of the results.

Molecular target: Single-stranded DNA cytosine deaminase (Homo sapiens) (UniProt Q9GZX7)
Assay: Confirmatory qHTS assay for inhibitors of Activation Induced Cytidine Deaminase (AID): AID signals
Conditions: recombinant AID, FRET deamination/UDG coupled fluorescence, 4 h; series mostly up to 115 µM; activity, negative = inhibition: at the top concentration
Procedure, shortened: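 Read 1 (AID) was measured at 540 ex/590 em after a 30 min NaOH step. The reaction was AID (1 uM, 4/3x stock) with UDG, compound at final 7.32 nM - 114 uM for 10 min, then DJC20/DJC23 substrate for 4 hr at room temperature. A UDG read at 560/665 serves as counterscreen.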
On the % scale 0 is the no-effect control and ±100 the full control effect; potency means the concentration at half of the fitted maximal effect.

Chain of UniProt Q9GZX7 (Q9GZX7 whole entry, looked up): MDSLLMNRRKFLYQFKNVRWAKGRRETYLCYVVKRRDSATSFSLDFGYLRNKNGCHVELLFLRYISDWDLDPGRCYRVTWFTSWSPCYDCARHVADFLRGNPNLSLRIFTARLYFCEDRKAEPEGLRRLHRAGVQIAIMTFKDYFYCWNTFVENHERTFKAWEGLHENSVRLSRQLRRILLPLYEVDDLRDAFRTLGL

SMILES | activity, negative = inhibition | Potency
Cc1ccc(N2C(=O)CSC23C(=O)N(CC(=O)Nc2ccc(C(C)C)cc2)c2ccccc23)cc1C (configuration not stated) | inactive: -3.35% | –
COc1ccc(NC(=O)c2c(NC(=O)c3ccc(Br)cc3)sc3c2CCCC3)cc1 | inactive: 12.5% | –
CCCCN1C(C(=O)c2ccccc2)=C(OC(C)=O)c2ccccc2S1(=O)=O | inactive: 1.35% | –
COc1ccc(C)cc1N(C)C(=O)c1c2c(nc3ccccc13)C(=O)N(C1CCCCC1)C2 | inactive: -15.8% | –
Cc1c(NC(=O)C(C)(C)Oc2ccc(Cl)cc2)cccc1-c1nc2ncccc2o1 | inactive: -8.2% | –
O=C(Nc1ccc(F)cc1F)c1ccc2c(O)c(S(=O)(=O)c3ccc(Cl)cc3)c(=O)[nH]c2c1 | inactive: -25.6% | –
Cc1ccccc1Cc1c(C)nc2nc(SCC(=O)NCCc3ccc(Cl)cc3)nn2c1C | inactive: -17.9% | –
COc1ccc(CNCCC(c2ccccc2)c2ccc3c(c2)OCO3)cc1 (configuration not stated) | inactive: -14.1% | –
CCC1CCCCN1C(=O)CSc1nc2c([nH]c3ccccc32)c(=O)n1-c1cccc(OC)c1 (configuration not stated) | inactive: -12.2% | –
CCn1cc(C(=O)NCCCN2CCC(C)CC2)c(=O)c2cc(S(=O)(=O)N(C)C3CCCCC3)ccc21 | inactive: -5.33% | –
Cc1cccc(-c2nc3c(cnn3-c3ccccc3)c(=O)n2-c2cccc(Cl)c2)c1 | inactive: -16.3% | –
CC(C)(C)OC(=O)N1CCC(c2c(C(=O)Nc3ccc4c(c3)OCCO4)cnn2-c2ccc(F)cc2)CC1 | inactive: -8.55% | –
COc1ccc(-c2cc(C(=O)Oc3ccccc3)c3cc(C)ccc3n2)cc1 | inactive: 6.53% | –
O=C(c1noc2c1CCCCC2)N1CCN(c2ccc(Cl)cc2)CC1 | inactive: -0.744% | –
Cn1c(=O)c2c(-c3ccc(Br)cc3)n(CCc3ccccc3)cc2n(C)c1=O | inactive: -16.2% | –
CCc1ccc(OCC(=O)N(Cc2ccco2)Cc2ccccc2Cl)cc1 | inactive: -6.48% | –
O=C1c2ccccc2C(=O)C1(c1ccccc1)N1CCN(c2cccc(C(F)(F)F)c2)CC1 | inactive: -4.48% | –
Cc1ccc(S(=O)(=O)c2nnn3c2nc(N2CCCCC2)c2sccc23)cc1 | inactive: -17.3% | –
Cc1ccc(C(=O)/C=C/c2cn(CC(O)CN3CCCCCC3)c3ccccc23)cc1 (configuration not stated) | inactive: -11.7% | –
CC(=O)Nc1ccc(S(=O)(=O)Nc2nc3n(n2)C(c2ccccc2)C=C(c2ccc(Cl)cc2)N3)cc1 (configuration not stated) | – | active: 39.8 µM
COc1ccccc1CN(Cc1ccco1)c1cnc(S(C)(=O)=O)nc1C(=O)Nc1ccccc1Cl | inactive: -2.2% | –
CCCn1c(SCc2nc(-c3ccccc3OCC)no2)nnc1-c1ccc(Cl)cc1 | inactive: -16.7% | –
CN(c1ccc(F)cc1)S(=O)(=O)N1CCCC(C(=O)NCc2cccc(Br)c2)C1 (configuration not stated) | inactive: -8.21% | –

SMILES | activity, negative = inhibition | Potency
O=C(C1CCC(Cn2c(=O)c3sccc3n(Cc3ccccc3)c2=O)CC1)N1CCCCC1 (configuration not stated) | inactive: -13.8% | –
Cc1cccc(Cn2cc(C(=O)c3ccccc3)c(=O)c3cc4c(cc32)OCO4)c1 | inactive: -23.8% | –
COc1cc(OC)c(N(C)C(=O)c2nn(C)c3c2CSc2ccccc2-3)cc1Cl | inactive: -7.59% | –
O=C(NCC(c1ccccc1)c1ccccc1)c1nn(-c2ccccc2Cl)nc1CO | inactive: -13.2% | –
COc1ccc(C(=O)c2cn(Cc3cccc(C)c3)c3cc4c(cc3c2=O)OCCO4)cc1OC | inactive: -16.1% | –
CCN(CC)CCCNC(=O)c1ccc2c(c1)sc1nc(-c3ccc(C)cc3)cn12 | inactive: -24.7% | –
COc1ccccc1-c1nn(CCC(=O)Nc2ccc(C)cc2)c2nc(C)cc(C)c12 | inactive: -5.06% | –
COc1ccc(OCc2nc3ccccc3n2Cc2ccc(C(C)(C)C)cc2)cc1 | inactive: -23.3% | –
Cc1ccc(-n2ncc(C(=O)NCCN3CCC(Cc4ccccc4)CC3)c2C2CCN(C(=O)OC(C)(C)C)CC2)cc1 | inactive: -12.9% | –
COc1cc2c(cc1OC)C(COc1cc(C)cc(C)c1)N(C(=O)C(C)(C)C)CC2 (configuration not stated) | inactive: -4.65% | –
CCCCN(Cc1ccccc1)C(=O)CN(C)S(=O)(=O)c1ccc2c(c1)c(=O)n(C)c(=O)n2C | inactive: -1.56% | –
O=C(c1ccc2c(c1)OCO2)c1cn(Cc2ccc(F)cc2)c2ccccc2c1=O | inactive: -19.9% | –
Cc1ccc(NC(=O)C2CCCN(S(=O)(=O)c3cccc4cccnc34)C2)cc1Cl (configuration not stated) | inactive: -27.7% | –
COc1ccc(Br)cc1CNC(=O)c1cc2n(n1)CCCN(Cc1ccc(C)cc1)C2=O | inactive: -4.58% | –
CCC(C(=O)Nc1cc(OC)cc(OC)c1)n1nc(-c2ccc(C)c(C)c2)ccc1=O (configuration not stated) | inactive: -19.2% | –
CCC(Sc1nncn2c1cc1occc12)C(=O)Nc1ccc(C)c(Cl)c1 (configuration not stated) | inactive: -3.07% | –
Cc1ccc(-c2noc(CN(C(=O)COc3cc(C)cc(C)c3C)C(C)C)n2)cc1 | inactive: -2.39% | –
CCOc1ccccc1CNC(=O)c1cccn1-c1nnc(N2CCCCC2)s1 | inactive: -15.3% | –
C=Cc1ccc(CSc2nc(-c3ccc(C)cc3)nc3c2Cc2c(CO)cnc(C)c2O3)cc1 | inactive: -23.5% | –
COc1cc2ccccc2cc1C(=O)N1CCN(c2nc3ccc(F)cc3s2)CC1 | inactive: -19.5% | –
Cc1ccc(CN(Cc2ccco2)C(=O)COc2ccc(Cl)cc2)o1 | inactive: -4.17% | –
Cc1ccc2onc(CC(=O)N3CCN(c4cccc(C)c4C)CC3)c2c1 | inactive: -10.3% | –
COc1ccc(-c2nc(Cn3c(SCc4ccc(F)cc4)nc4cccnc43)c(C)o2)cc1 | inactive: -8.87% | –

SMILES | activity, negative = inhibition | Potency
CCN(CC)CCNC(=O)c1ccc2c(=O)n3nc(Nc4ccccc4)sc3nc2c1 | inactive: -15.6% | –
COc1ccccc1N1CCN(C(=O)c2cc3ccc4ccc(C)[nH]c4c3n2)CC1 | inactive: 3.08% | –
CCOc1ccc(NC(=O)CCS(=O)(=O)c2ccc(Br)cc2)cc1 | inactive: -1.55% | –
CC(=O)N1CCCc2cc(S(=O)(=O)N3CCCC(C(=O)N4CCN(c5cc(C)ccc5C)CC4)C3)ccc21 (configuration not stated) | inactive: -13% | –
CCOc1ccc(Nc2c(S(=O)(=O)c3ccccc3)cnc3ccccc23)cc1 | inactive: -20.5% | –
COc1ccc(OC)c(CNC(=O)CSc2c3c(nc4cc(Cl)ccc24)CCCC3)c1 | inactive: -3.21% | –
Cc1ccc(CSC2=Nc3ccccc3C3=NC(CC(=O)NCc4ccc5c(c4)OCO5)C(=O)N23)cc1 (configuration not stated) | inactive: -18% | –
COc1ccc(OC)c(NC(=O)Cn2c(=O)cc(C)c3c(C)nn(-c4cccc(Cl)c4C)c32)c1 | inactive: -25% | –
O=S1(=O)c2ccccc2N(Cc2ccc(Cl)cc2)c2ccccc21 | inactive: -8.91% | –
O=C(NCCc1ccc(Cl)cc1)c1ccc2c(c1)N(Cc1ccc(Cl)cc1)C(=O)CS2 | inactive: -4.7% | –
COc1cccc(C(=O)Nc2ccc3oc(-c4cccc5c(Br)cccc45)nc3c2)c1 | inactive: -22.2% | –
N#C/C(=C\c1ccc(-c2cc(Cl)ccc2Cl)o1)C(=O)Nc1ccccc1C(=O)O | – | active: 28.2 µM
Cc1cc(C)c(NC(=O)CSc2ncc(S(=O)(=O)c3ccc(C(C)(C)C)cc3)c(=O)[nH]2)c(C)c1 | inactive: -9.91% | –
Cc1ccc(Cl)cc1NC(=O)CSc1nc(C)c(C)c(C)c1C#N | inactive: -0.0381% | –
Cc1ccc(C2=NN(CC(=O)NCCN(CC(C)C)CC(C)C)C(=O)CC2)cc1 | inactive: -12.6% | –
CC(C)n1c(SCC(=O)Nc2ccc(F)cc2)nc2c(oc3ccccc32)c1=O | inactive: -9.08% | –
CCN(c1cccc(C)c1)S(=O)(=O)c1nnc(NC(=O)c2ccccc2Cl)s1 | inactive: -16.9% | –
COc1ccc(-c2cn3cccnc3n2)cc1NC(=O)c1cc(C)cc(C)c1 | inactive: -8.96% | –
Cc1cc(Cl)ccc1OCC(=O)N(Cc1ccco1)Cc1ccccc1F | inactive: -5.53% | –
COc1ccc(NCc2cccn2-c2nnc(N3CCCCCC3)s2)cc1 | inactive: -9.42% | –
CC(=O)c1ccc(NC(=O)C2CCN(c3nnc(C)c4c(C)n(-c5ccccc5)nc34)CC2)cc1 | inactive: -29.1% | –
CCCCn1c(CNC(=O)C23CC4CC(CC(C4)C2)C3)nnc1SCC(=O)Nc1ccc(C)cc1 | inactive: -19.3% | –
COc1ccc(C(=O)c2cn(Cc3ccccc3F)c3cc4c(cc3c2=O)OCCO4)cc1OC | inactive: -18.9% | –

SMILES | activity, negative = inhibition | Potency
COc1ccc(-c2csc3nc(-c4ccc(C)cc4)oc(=O)c23)cc1OC | inactive: -17.6% | –
CCOc1ccc(NC(=O)[C@@H](c2ccccc2)N2Cc3ccccc3C2=O)cc1 | inactive: -12% | –
COc1cccc(N2CCN(C(=O)c3ccc4c(Cl)c5c(nc4c3)CCCC5)CC2)c1 | inactive: -22.5% | –
Cc1ccc(Nc2c3c(nc4nc(-c5cccs5)nn24)CCCC3)cc1F | inactive: -24.6% | –
COc1ccc(N2C(=O)CSC23C(=O)N(Cc2cccc(C(F)(F)F)c2)c2ccccc23)cc1 (configuration not stated) | inactive: -22.2% | –
CC(=O)[C@]1(O)Cc2c(O)c3c(c(O)c2[C@@H](O[C@H]2C[C@H](N)[C@H](O)[C@H](C)O2)C1)C(=O)c1ccccc1C3=O | – | active: 5.62 µM
CCCCOc1cccc(C(=O)Nc2cccc3ccc(C)nc23)c1 | inactive: -2.14% | –
COc1cc(OC)cc(C(=O)Nc2ccc3nc(N4CCC(C)CC4)cc(C)c3c2)c1 | inactive: -6.18% | –
Cc1ccc(C)c(N2CCN(C(=O)c3ccc4c(Cl)c5c(nc4c3)CCCC5)CC2)c1 | inactive: -8.67% | –
COc1ccc(C(=O)N(Cc2ccco2)Cc2ccccc2F)cc1Cl | inactive: -20.4% | –
CC1=C(C(=O)NCc2cccc(Cl)c2)C2(CCCCCC2)OC1=O | inactive: 1.97% | –
Cc1ccc2c(c1)-c1ncc(C(=O)c3cc(Br)ccc3O)cc1CO2 | inactive: 0.761% | –
Cc1cc(C)cc(Nc2cc(C)nc3nc(-c4ccco4)nn23)c1 | inactive: -6.46% | –
Cc1cccc(OC(C)C(=O)N2CCC(c3nc4ccccc4o3)CC2)c1C (configuration not stated) | inactive: -10.2% | –
COc1ccc(C(CNC(=O)COc2cc(C)c(Cl)c(C)c2)N2CCCCC2)cc1 (configuration not stated) | inactive: 4.72% | –
O=C(NCCn1cc(SCc2ccc(C(F)(F)F)cc2)c2ccccc21)c1cccs1 | inactive: 7.38% | –
Cc1cc2ccccc2n1-c1ccc(C(=O)N2CCCCC2)s1 | inactive: -4.34% | –
Cc1ccccc1CSc1nc2nc(C)c(Cc3ccccc3)c(C)n2n1 | inactive: -17.8% | –
CCCCN(CCCC)CC(O)Cn1cc(/C=C/C(=O)c2ccccc2)c2ccccc21 (configuration not stated) | inactive: -9.29% | –
CCCCOc1ccc(-c2nn(-c3ccccc3)cc2C2NC(=O)NC(C)=C2C(=O)OCC)cc1 (configuration not stated) | inactive: -23.8% | –
Cc1cccc(N2C(=O)N(CC(=O)C(C)(C)C)c3ccccc3S2(=O)=O)c1C | inactive: -1.03% | –
CCOc1ccc(C(=O)/C=C/c2cn(CC(O)CN3CCCCCC3)c3ccccc23)cc1 (configuration not stated) | inactive: -5.22% | –
Cc1cc2nnc(SCc3ccc(F)cc3)n2c2ccccc12 | inactive: -13.7% | –
